From paper PMC3924036
These are yes or no findings as the source states them, for the method shown. In cells and extracts the contact can be indirect. Some results given as binding are weak or reduced against the parent protein; the word gives no strength. For some assays here: Where a sequence is shown, tags or fusion partners need not be part of it.

Legend:
Test in all cases: cross-linking + pull-down; formaldehyde in vivo cross-linking, His-tagged bait purified by affinity chromatography, cross-links reversed at 95°C; eluates analysed by SDS-PAGE and Western blotting (SecA, DivIVA, GFP antisera)
[1] = biological target: SecA-His (strain BSN131) (B. subtilis) (UniProt P28366)
[2] = biological target: T1, His-DivIVA fusion (strain BSN50) (B. subtilis) (UniProt P71021)
T1 sequence: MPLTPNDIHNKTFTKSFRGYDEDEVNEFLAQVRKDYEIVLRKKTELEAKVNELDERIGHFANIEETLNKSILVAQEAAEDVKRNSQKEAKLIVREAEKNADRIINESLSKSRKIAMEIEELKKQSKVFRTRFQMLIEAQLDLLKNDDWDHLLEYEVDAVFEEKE

[3] = biological target: T2, DivIVA-GFP-His-tag fusion (strain 3308) (B. subtilis) (UniProt P71021)
T2 sequence: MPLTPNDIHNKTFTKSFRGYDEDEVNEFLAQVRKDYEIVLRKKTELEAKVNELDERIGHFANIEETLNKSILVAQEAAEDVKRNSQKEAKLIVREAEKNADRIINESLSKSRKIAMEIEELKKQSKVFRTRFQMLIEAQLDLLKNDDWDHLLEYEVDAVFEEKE

In the case of “elongation factor Tu (TufA) (from UniProt P33166 1-396)”, the binding [1] is reported as “no binding”.

In the case of “secretion ATPase SecA (from UniProt P28366 1-841) (enzyme)”, the binding [2] is reported as “binds” and the binding [3] is reported as “binds”.

B1: DivIVA (protein, UniProt P71021 1-164)
chain: MPLTPNDIHNKTFTKSFRGYDEDEVNEFLAQVRKDYEIVLRKKTELEAKVNELDERIGHFANIEETLNKSILVAQEAAEDVKRNSQKEAKLIVREAEKNADRIINESLSKSRKIAMEIEELKKQSKVFRTRFQMLIEAQLDLLKNDDWDHLLEYEVDAVFEEKE
B1 was tested, and the binding [1] was “binds”.

B2: SecY (protein, UniProt P16336 1-431)
chain: MFKTISNFMRVSDIRNKIIFTLLMLIVFRIGAFIPVPYVNAEALQAQSQMGVFDLLNTFGGGALYQFSIFAMGITPYITASIIIQLLQMDVVPKFTEWSKQGEVGRRKLAQFTRYFTIVLGFIQALGMSYGFNNLANGMLIEKSGVSTYLIIALVLTGGTAFLMWLGEQITSHGVGNGISIIIFAGIVSSIPKTIGQIYETQFVGSNDQLFIHIVKVALLVIAILAVIVGVIFIQQAVRKIAIQYAKGTGRSPAGGGQSTHLPLKVNPAGVIPVIFAVAFLITPRTIASFFGTNDVTKWIQNNFDNTHPVGMAIYVALIIAFTYFYAFVQVNPEQMADNLKKQGGYIPGVRPGKMTQDRITSILYRLTFVGSIFLAVISILPIFFIQFAGLPQSAQIGGTSLLIVVGVALETMKQLESQLVKRNYRGFMKN
B2 was tested, and the binding [1] was “binds”.
